According to PubChem BioAssay AID1963434 (Molecular Pharmacology Branch, DTP, NCI, 2024):
Some entries of the source have several records that differ or are many. The other results are left out here. There may be further records. Values given together repeat one measurement across runs, samples, wells, individuals or studies. Marks such as (2×) say how often a value occurs here. A date in brackets names the month of the test.

Tested on: 755483-174-R-J1-PDC complex spheroid growth, percent test/control
Experiment: Anticancer human tumor 755483-174-R-J1-PDC patient-derived rhabdomyosarcoma cell line growth inhibition [Asc]
Details: for viability, T/C: stronger effect = lower value; for IC50: compound alone
Experimental: Multicellular complex tumor spheroid response to apoptosis pathway targeting inhibitors Alrizomadlin, Pelcitoclax, and Dasminapant in combination with a variety of drugs and investigational agents in selected tumor cell lines
The MDM2 inhibitor alrizomadlin, the Bcl-2/Bcl-xL inhibitor pelcitoclax, and the IAPs inhibitor dasminapant were evaluated both individually and in combination with standard of care and investigational anticancer small molecules within a complex spheroid model of solid tumors. . Complex spheroids include a stromal component modeled by human endothelial cells (HUVEC) and fibroblasts modeled by human mesenchymal stem cells (MSCs). The concentration ranges selected for each drug and investigational agent were based upon clinically achievable concentrations if the clinical Cmax of the agent was known.
Compounds. The drugs and investigational agents: alrizomadlin (APG-115; NSC831270), pelcitoclax (APG-1252; NSC835773), dasminapant (APG-1387;NSC834197), TAK-243 (NSC785004), copanlisib (NSC809693), olaparib (NSC753686), talazoparib (NSC767125), cobimetinib (NSC 768068), eltanexor (KPT-8602, NSC 794443), abemaciclib (NSC 768073), sotorasib (NSC818433), adagrasib (NSC 831453), MRTX-1133 (NSC 836407), Iadademestat (ORY1001, NSC 806812), and RMC-4630 (NSC839698), were obtained from the NCI Developmental Therapeutics Program Chemical Repository. The FDA-approved anticancer drug set is available from the Developmental Therapeutics Program at https://dtp.cancer.gov/organization/dscb/obtaining/available plates.htm. […] The stock solutions were prepared in dimethyl sulfoxide (DMSO, Sigma-Aldrich, St. Louis, MO, cat. D2650) at 800-fold the tested concentration and stored at -70 degrees C prior to their use. All drugs and investigational agents were tested over a range starting from a high concentration at or near the clinical Cmax and decreasing in half-log increments. If the clinical Cmax for an agent had not been determined, the highest concentration tested was 10 microM.
The patient-derived cancer (PDC) cell lines include five colon adenocarcinomas: 186277-243-T-J2-PDC, 616215-338-R-J1-PDC, 439559-082-T-J2-PDC, 463943-066-T-J2-PDC, and 519858-162-T-J1-PDC; three pancreatic carcinomas: 323965-272-R-J2-PDC, 521955-158-R6-J3-PDC, and 521955-158-R2-J5-PDC; two uterine sarcomas: 327498-152-R-J2-PDC and 993429-296-R-J1-PDC; two rhabdomyosarcomas: 755483-174-R-J1-PDC and 772245-204-R-J1-PDC; two soft tissue sarcomas: 126254-015-R-J1-PDC and 494315-158-R-J1-PDC; two malignant fibrous histiocytomas: 317291-083-R-J1-PDC and 596521-263-R-J1-PDC; two breast carcinomas: 171881-019-R-J1-PDC and 885512-296-R-J2-PDC; and one ovarian carcinoma: 6556581-035-R-J-PDC were obtained from the NCI PDMR, (https://pdmr.cancer.gov). The established cell lines HSSY-2 synovial sarcoma (RRID:CVCL 8719), SYO-1 synovial sarcoma (RRID:CVCL_7146), MPNST malignant peripheral neural sheath tumor were obtained from the Sloan Kettering Institute. The following established cell lines were purchased from the American Type Culture Collection (ATCC, Manassas, VA), Sor the received from the NCI repository:, PANC-1 pancreatic carcinoma (CRL-1469, RRID:CVCL_0480), OVCAR-5 ovarian carcinoma (RRID:CVCL_1628), OVCAR-8 ovarian carcinoma (RRID:CVCL_1629), , MCF-7 breast carcinoma (CRL-12584, RRID:CVCL_0031), MDA-MB-231 breast carcinoma (CRL-12532, RRID:CVCL_0062), NCI-H1876 small cell lung carcinoma (CRL-5902, RRID:CVCL_1503), NCI-H510A small cell lung carcinoma (HTB-184, RRID:CVCL_1565), NCI-H1417 (CRL-5869, RRID:CVCL_1469), and NCI-H196 small cell lung carcinoma (CRL-5823, RRID:CVCL_1509). Dr. Peter Houghton (Greehey Children's Cancer Research Institute, University of Texas Health Science Center, San Antonio, TX) provided Rh-18 rhabdomyosarcoma (RRID:CVCL_1659). Pooled donor human umbilical vein endothelial cells (HUVEC, Lonza, cat. CC-2519) and human mesenchymal stem cells (hMSC, Lonza, cat. PT-2501) were purchased from Lonza (Walkersville, MD).
Cell Culture. […]
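Also: spheroids exposed to compounds for seven days before readout.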

Q: `Cc1c(S(C)(=O)=O)c(-c2cc(F)cc(N3CCN(c4ccc(NS(=O)(=O)c5ccc(NC(CCN6CCC(C(=O)OCCCP(=O)(O)O)CC6)CSc6ccccc6)c(S(=O)(=O)C(F)(F)F)c5)cc4)CC3)c2)c(-c2ccc(Cl)cc2)n1C(C)C` (stereo not given) was tested. Which viability, T/C (compound alone 0.1 µM) did it give?
A: 52.3, 49.6, 65.9, 43.7, 54.8, 59.1, 53.1, 48.3, 51.3, 45.8, 36.5, 59.6, 40, 48.6%

Q: What about the viability, T/C (compound alone 0.316 µM) of the same compound?
A: 61.5, 33.9, 38.2, 35.8, 35.9, 52.3, 28.6, 46.8, 43.7, 44.3, 41.1, 54.1, 49.4, 58.1%

Q: And the viability, T/C (compound alone 1 µM)?
A: 47.7, 34, 40.5, 42.1, 50.5, 50.9, 39.3, 33.9, 54.4, 38.3, 57.5, 44.4, 53.5, 30.8%

Q: What about the viability, T/C (compound alone 3.16 µM) of the same compound?
A: 27.3 (2×), 36.8, 26, 32.6, 51.3, 30.7, 39.9, 38, 33.8, 47.3, 23.7, 27.2, 26.1%

Q: And the IC50 (run of 09/27/2022)?
A: 752 nM, < 100 nM, 201 nM, 425 nM, 133 nM, 595 nM, 100 nM, 375 nM

Q: What does the source list for `CNC(C)C(=O)NC1CN(S(=O)(=O)c2cccc(S(=O)(=O)N3CCC4CCC(C(=O)NC(c5ccccc5)c5ccccc5)N4C(=O)C(NC(=O)C(C)NC)C3)c2)CCC2CCC(C(=O)NC(c3ccccc3)c3ccccc3)N2C1=O` (stereo not given)?
A: viability, T/C (compound alone 0.01 µM): 62.1%, 48.2% [2022-09] and 64.3, 51.3, 48.9, 53.7, 68.8, 53.1, 51.7, 59.6, 67.5, 58.2, 55.3, 53.5, 33.9% [2022-10]; viability, T/C (compound alone 0.0316 µM): 45%, 51.7% [2022-09] and 39.7, 30.8, 28.5, 48.7, 56.9, 45.3 (2×), 46.3, 47.5, 59.2, 46.9, 17.9, 47.1% [2022-10]; viability, T/C (compound alone 0.316 µM): 35.3%, 27.3% [2022-09] and 29.3, 30.9, 30.8, 17, 36.5 (2×), 23.6, 45.1, 40.9 (2×), 42.2, 26.9, 33% [2022-10]; viability, T/C (compound alone 1 µM): 44.6%, 21.5% [2022-09] and 24.4, 16.6, 21.1, 16.4, 22.6, 27.6, 25.6, 27.8, 37.1, 26.6, 30.3, 35.6, 34.3% [2022-10]; IC50 (run of 10/03/2022): 20.1 nM, 27.5 nM, 47.4 nM, 17.2 nM, 31 nM, 63.6 nM, 21.5 nM, 18.7 nM, 11.7 nM, < 10 nM

Q: How did the viability, T/C (compound alone 0.03 µM) turn out when `CCN1C(C(=O)NC23CCC(C(=O)O)(CC2)CC3)C(c2cccc(Cl)c2F)C2(C(=O)Nc3cc(Cl)ccc32)C12CCCCC2` (stereo not given) was run?
A: 84.6, 54.7, 84, 92.3, 74.3, 101, 100 (2×), 83.3, 65.3, 83.5, 71.5, 93, 85.2% [2022-09] and 86.4% [2022-10]

Q: And the viability, T/C (compound alone 0.0949 µM)?
A: 72.2, 84.5, 110, 87.3, 89.8, 88.5, 93, 82.6, 89.6, 97.8, 84.1, 81.8, 90.8, 78.9% [2022-09] and 72.4% [2022-10]

Q: And the viability, T/C (compound alone 0.3 µM)?
A: 78.6, 80, 111, 112, 89.8, 74.2, 85.3, 77.4, 90.3, 65.8, 103, 80.2, 72.5, 94.3% [2022-09] and 83% [2022-10]

Q: What about the viability, T/C (compound alone 0.949 µM) of the same compound?
A: 104, 59.2, 89.6, 94.3, 67.7, 75, 101 (2×), 87.1, 84.9, 78.4, 115, 77.5, 88.1% [2022-09] and 82.3% [2022-10]

Q: What about the viability, T/C (compound alone 3 µM) of the same compound?
A: 78.3, 83.9, 80, 74.7, 106, 73.8, 82.8, 68.9, 117, 84.9, 96.5, 73.2, 92.2, 111% [2022-09] and 68.7% [2022-10]
